From the supplement of paper PMC12217912
This is one part of the list. Sequences were assembled here from the parent chain. Values near 0.05 are background.

B1: TEV protease; numbered along this chain (parent)
chain: MGESLFKGPRDYNPISSSICHLTNESDGHTTSLYGIGFGPFIITNKHLFRRNNGTLVVQSLHGVFKVKDTTTLQQHLVDGRDMIIIRMPKDFPPFPQKLKFREPQREERICLVTTNFQTKSMSSMVSDTSCTFPSGDGIFWKHWIQTKDGQCGSPLVSTRDGFIVGIHSASNFTNTNNYFTSVPKNFMELLTNQEAQQWVSGWRLNADSVLWGGHKVFMVKPEEPFQPVKEATQL

Variants of: B1
Experiment: raw area under fraction-flipped curve 0-4 h after induction (AUC4h, not background-subtracted), DNA-recorder readout of cleavage of the substrate (dimensionless); higher = more cleavage of the substrate by the protease variant
Conditions: temperature: 34 °C; time window: 0-4 h after rhamnose induction
Procedure: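 In vivo DNA recorder in E. coli TOP10(DE3) ΔrhaA at 34 °C. Each TEVp single-site mutant (parent TEVp 0) is paired with a single-site variant of the 7-mer TEVs (canonical ENLYFQ|S). The substrate sits between flexible linkers in a Bxb1-sfGFP-TEVs-SsrA fusion, so cleavage stabilises Bxb1 and speeds flipping of a recombination array, read by NGS. The value is the raw area under the fraction-flipped curve over 0-4 h after rhamnose induction (AUC4h), with ≥20 reads per time point. It is not background-subtracted; inactive controls average about 0.047.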
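Note: Bxb1 expression induced with 0.2% (w/v) L-rhamnose at OD600 near 0.5, cultures sampled hourly, flipped fraction per protease–substrate barcode pair counted by paired-end Illumina sequencing.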

Row | Variant | area with substrate EALYFQS | area with substrate ECLYFQS | area with substrate EDLYFQS | area with substrate EELYFQS | area with substrate EFLYFQS | area with substrate EGLYFQS | area with substrate EKLYFQS | area with substrate ELLYFQS | area with substrate EMLYFQS | area with substrate EQLYFQS | area with substrate ESLYFQS | area with substrate ETLYFQS | area with substrate EVLYFQS | area with substrate EHLYFQS | area with substrate EPLYFQS | area with substrate ERLYFQS | area with substrate EWLYFQS | area with substrate EILYFQS | area with substrate EYLYFQS
1 | K216Y | 0.12 | 0.101 | 0.0975 | 0.0925 | 0.107 | 0.0883 | 0.0863 | 0.106 | 0.0978 | 0.0919 | 0.0897 | 0.0976 | 0.0807 | – | – | – | – | – | –
2 | F218C | 0.124 | 0.113 | 0.139 | – | – | – | – | – | 0.0946 | – | 0.11 | – | – | 0.123 | 0.135 | 0.0975 | 0.132 | – | –
3 | F218Q | 0.098 | – | – | 0.112 | – | 0.0534 | – | – | 0.105 | 0.088 | 0.0847 | 0.12 | 0.0791 | 0.0843 | 0.0908 | 0.0789 | 0.0803 | 0.0691 | 0.0799
4 | V220H | 0.124 | 0.0953 | 0.129 | 0.143 | – | 0.105 | 0.102 | 0.0835 | 0.124 | 0.104 | 0.108 | 0.105 | 0.104 | 0.125 | 0.181 | 0.13 | 0.0967 | 0.124 | –
5 | K221P | 0.105 | – | 0.13 | – | – | – | – | 0.105 | 0.0915 | 0.0064 | 0.116 | – | 0.113 | 0.113 | 0.095 | 0.0985 | – | 0.114 | –
6 | E223P | 0.0647 | – | – | – | – | 0.118 | 0.12 | – | 0.0901 | 0.109 | 0.104 | – | – | 0.0823 | – | 0.0864 | 0.0876 | 0.0956 | –
7 | P225Y | 0.0907 | 0.011 | – | 0.145 | – | 0.0936 | – | – | 0.057 | – | 0.095 | – | 0.11 | – | – | 0.0876 | 0.0797 | 0.0754 | 0.0933
8 | F226L | 0.113 | 0.087 | – | 0.1 | – | 0.0828 | 0.113 | 0.11 | 0.116 | 0.146 | 0.104 | – | – | 0.128 | 0.104 | 0.108 | 0.102 | – | 0.131
9 | F226P | 0.108 | – | 0.155 | – | – | – | 0.0849 | – | – | 0.124 | 0.0607 | – | 0.103 | – | 0.169 | 0.114 | 0.108 | – | –
10 | P228I | 0.127 | 0.0785 | – | – | – | – | – | – | – | 0.118 | 0.0753 | – | – | – | – | – | – | 0.0256 | –
11 | V229N | 0.158 | 0.107 | – | – | – | – | 0.114 | 0.116 | 0.13 | 0.118 | 0.106 | 0.173 | 0.0989 | – | 0.15 | 0.0906 | 0.0924 | 0.107 | 0.103
12 | V229W | 0.11 | 0.0915 | 0.154 | – | – | 0.113 | 0.091 | 0.0716 | 0.0428 | 0.118 | 0.115 | 0.102 | 0.0814 | 0.122 | 0.0916 | – | 0.0756 | 0.0949 | –
13 | K230R | 0.0862 | 0.109 | – | 0.0975 | – | – | – | – | 0.116 | – | 0.112 | 0.146 | 0.131 | – | 0.139 | 0.103 | – | 0.107 | –
14 | E231S | 0.107 | – | 0.14 | 0.105 | – | – | 0.124 | 0.0896 | – | – | 0.105 | – | – | – | 0.119 | – | 0.109 | 0.0887 | –
15 | T233A | 0.136 | 0.113 | – | – | – | 0.0901 | – | – | – | – | 0.134 | – | 0.103 | 0.116 | – | 0.0966 | – | 0.0908 | –
16 | T233F | 0.101 | 0.0875 | 0.107 | 0.105 | – | 0.0981 | 0.107 | 0.0742 | 0.148 | 0.0834 | 0.125 | – | 0.101 | – | – | – | 0.102 | – | 0.148

Row | Variant | area with substrate EALYFQS | area with substrate ECLYFQS | area with substrate EDLYFQS | area with substrate EELYFQS | area with substrate EFLYFQS | area with substrate EGLYFQS | area with substrate EKLYFQS | area with substrate ELLYFQS | area with substrate EMLYFQS | area with substrate EQLYFQS | area with substrate ESLYFQS | area with substrate ETLYFQS | area with substrate EVLYFQS | area with substrate EHLYFQS | area with substrate EPLYFQS | area with substrate ERLYFQS | area with substrate EWLYFQS | area with substrate EILYFQS | area with substrate EYLYFQS
17 | Q234E | 0.12 | 0.095 | 0.168 | – | – | 0.107 | 0.0908 | 0.092 | 0.12 | 0.109 | 0.13 | – | 0.0984 | 0.0527 | 0.112 | 0.0929 | – | 0.0947 | –
18 | Q234P | 0.121 | 0.098 | – | – | – | 0.0922 | 0.0877 | 0.0897 | – | – | 0.0879 | – | 0.0912 | – | 0.116 | 0.087 | 0.09 | 0.0931 | 0.0632
19 | L235D | 0.131 | – | – | – | – | – | 0.135 | – | 0.0922 | 0.102 | 0.109 | – | – | – | – | – | – | 0.0714 | –
20 | L235W | 0.184 | 0.0986 | – | – | – | 0.103 | – | – | 0.0901 | 0.0972 | 0.0866 | – | 0.086 | 0.0818 | 0.0934 | – | – | – | 0.0904
21 | G2P | – | 0.125 | 0.101 | 0.129 | – | 0.109 | 0.123 | 0.0935 | 0.139 | – | 0.178 | 0.123 | 0.131 | 0.13 | 0.137 | 0.142 | – | 0.139 | 0.161
22 | E3K | – | 0.128 | – | – | – | 0.0698 | – | 0.0706 | 0.141 | – | 0.129 | 0.165 | 0.12 | 0.156 | – | 0.117 | – | 0.122 | –
23 | L5I | – | 0.156 | 0.171 | 0.153 | – | – | 0.158 | – | – | – | – | 0.191 | – | – | – | 0.107 | – | 0.111 | 0.0844
24 | K7F | – | 0.0817 | – | – | – | – | 0.117 | – | – | – | 0.0971 | – | – | – | – | – | – | 0.105 | –
25 | K7R | – | 0.139 | 0.139 | – | – | 0.0866 | – | 0.108 | – | 0.151 | 0.0804 | – | 0.101 | 0.104 | 0.112 | – | – | 0.0706 | –
26 | P9D | – | 0.107 | 0.0793 | – | – | – | 0.112 | – | – | – | 0.0994 | – | 0.0547 | 0.128 | 0.128 | – | – | – | 0.0995
27 | P9T | – | 0.0567 | – | – | 0.0743 | – | 0.137 | 0.0786 | 0.113 | 0.0714 | 0.158 | – | – | 0.0579 | – | 0.111 | – | 0.0779 | –
28 | P14F | – | 0.1 | 0.13 | 0.104 | – | 0.0889 | 0.0554 | 0.0867 | 0.098 | – | 0.0745 | – | – | – | 0.0986 | 0.0888 | 0.0942 | 0.0868 | –
29 | I19D | – | 0.0477 | 0.0388 | 0.0445 | 0.0458 | 0.0348 | 0.0441 | – | 0.045 | 0.0507 | 0.0471 | 0.0626 | 0.0565 | 0.0485 | 0.0463 | – | 0.0334 | 0.0475 | 0.0426
30 | T23F | – | 0.0908 | 0.113 | 0.131 | – | 0.0729 | 0.0888 | 0.0773 | 0.0991 | 0.107 | 0.09 | – | 0.0952 | 0.102 | – | 0.0868 | 0.0789 | 0.0794 | 0.118
31 | N24I | – | 0.0612 | 0.0789 | – | 0.0916 | 0.0911 | 0.0648 | 0.0892 | 0.0748 | – | 0.0739 | 0.102 | 0.0239 | – | 0.0904 | 0.0672 | 0.0887 | 0.0811 | –
